About 220 (0.56%) of roughly 39,000 compounds showed activity. The list shows a part of the results.
system: Escherichia coli K-12 BW25113; test: relative growth (OD600 normalised to plate interquartile mean) (fraction); higher = less growth inhibition, active = 0.2 or less; conditions: 50 µM; LB; incubation time: overnight (16-24 h)
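Further: static incubation at 37 °C against the wild-type strain, values averaged over two biological replicates.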

Row | Compound | relative growth
1 | C[C@@H]1CCCCO[C@H](CN(C)CC2CCCCC2)[C@@H](C)CN([C@H](C)CO)C(=O)c2cc(NC(=O)CCCN(C)C)ccc2O1 | inactive: 0.896
2 | COc1ccc(S(=O)(=O)N(C)C[C@H]2Oc3cc(-c4ccccc4OC)ccc3S(=O)(=O)N([C@H](C)CO)C[C@@H]2C)cc1 | inactive: 1.03
3 | Cc1ccc(S(=O)(=O)Nc2ccc3c(c2)C(=O)N([C@@H](C)CO)C[C@H](C)[C@@H](CN(C)C(=O)Nc2ccc(C(F)(F)F)cc2)O3)cc1 | inactive: 0.961
4 | CN1CCCN(C(=O)c2ncn3c(C4CCN(S(C)(=O)=O)CC4)ccnc23)CC1 | inactive: 0.987
5 | O=C(COCc1nnn2c1CNCCC2)N1CCCC1 | inactive: 1.01
6 | CC(C)(C)OC(=O)C[C@@H]1CC=CC[C@@H](CC(=O)NCCO)C(=O)N[C@@H](Cc2c[nH]c3ccccc23)COC1=O | inactive: 1.03
7 | COc1ccc(NC(=O)N(C)C[C@@H]2OCCCC[C@@H](C)Oc3ccc(NS(=O)(=O)c4c(C)noc4C)cc3C(=O)N([C@@H](C)CO)C[C@H]2C)cc1 | inactive: 0.994
8 | COc1ccc(-c2cnc3c(c2)C(=O)N([C@H](C)CO)C[C@H](C)[C@H](CN(C)C(=O)Cc2cccnc2)O3)cc1 | inactive: 0.992
9 | CC(C)[Si](C#Cc1ccc(Oc2ccccc2)cc1)(O[Si](C#Cc1ccc(Oc2ccccc2)cc1)(C(C)C)C(C)C)C(C)C | inactive: 0.997
10 | C[C@H]1CN([C@@H](C)CO)C(=O)c2c(c3ccccc3n2C)-c2ccccc2CO[C@@H]1CN(C)Cc1ccccc1C(F)(F)F | inactive: 1.03
11 | O=C1O[C@H](c2ccccc2)[C@H](c2ccccc2)N2[C@H]1[C@@H](C(=O)Nc1nc3ccccc3s1)[C@]1(C(=O)Nc3ccccc31)[C@H]2c1ccc(O)cc1 | inactive: 1.02
12 | C[C@H](CO)N1C[C@H](C)[C@@H](CN(C)S(C)(=O)=O)OCc2ccccc2-c2c(n(C)c3ccccc23)C1=O | inactive: 1.02
13 | Cc1cccc(N[C@H]2CS(=O)(=O)C[C@@H]2O)c1 | inactive: 0.937
14 | COc1ccc(CN(C)C[C@@H]2OCCCC[C@@H](C)Oc3ccc(NS(=O)(=O)c4cccs4)cc3C(=O)N([C@H](C)CO)C[C@@H]2C)cc1 | inactive: 0.987
15 | COCC(=O)N(C)C[C@@H]1Oc2cc(-c3ccc(OC)cc3)ccc2S(=O)(=O)N([C@H](C)CO)C[C@H]1C | inactive: 0.999
16 | O=C(NCc1cccc(F)c1)[C@H]1[C@H](CO)[C@H]2Cn3c(cccc3=O)[C@@H]1N2C(=O)c1cnccn1 | inactive: 0.969
17 | C[C@@H]1CCCCO[C@@H](CN(C)Cc2ccc(Cl)c(Cl)c2)[C@@H](C)CN([C@H](C)CO)C(=O)c2cc(NS(=O)(=O)c3ccc(F)cc3)ccc2O1 | inactive: 1.01
18 | COc1ccc(S(=O)(=O)N(C)C[C@@H]2Oc3ccc(N(C)C)cc3C(=O)N([C@@H](C)CO)C[C@@H]2C)cc1 | inactive: 1.01
19 | C[C@@H]1CN([C@H](C)CO)C(=O)c2cc(NC(=O)Cn3cnnn3)ccc2O[C@@H]1CN(C)C(=O)Nc1cccc2ccccc12 | inactive: 0.887
20 | O=Cc1ccccc1O[C@@H]1O[C@H](CO)[C@H](O)[C@@H](O)[C@H]1O | inactive: 0.987

Row | Compound | relative growth
21 | CC(C)(C)c1nc[nH]c1/C=c1\[nH]c(=O)/c(=C/c2ccccc2)[nH]c1=O | inactive: 0.971
22 | C[C@@H]1CN([C@@H](C)CO)C(=O)c2cccc(NC(=O)Nc3ccccc3)c2O[C@H]1CN(C)Cc1ccc(-c2ccccc2)cc1 | inactive: 0.994
23 | O=C(C[C@@H]1C=C[C@@H](NC(=O)Cc2ccccn2)[C@@H](CO)O1)NCCc1ccncc1 | inactive: 0.99
24 | C[C@H](CO)N1C[C@H](C)[C@H](CN(C)Cc2ccc(Cl)c(Cl)c2)Oc2ccc(NC(=O)Cn3cnnn3)cc2CC1=O | inactive: 0.999
25 | CNC[C@H]1Oc2ccc(NC(=O)CCN3CCOCC3)cc2CC(=O)N([C@H](C)CO)C[C@H]1C | inactive: 0.98
26 | Cc1noc(C)c1S(=O)(=O)N(C)C[C@H]1Oc2c(NC(=O)C3CCCCC3)cccc2C(=O)N([C@H](C)CO)C[C@H]1C | inactive: 1.01
27 | CC(C)NC(=O)Nc1ccc2c(c1)C(=O)N(C)[C@@H]1CC[C@H](CC(=O)NCc3ccc(F)cc3)O[C@H]1CO2 | inactive: 0.981
28 | C[C@@H]1CCCCO[C@@H](CN(C)C(=O)Nc2cccc3ccccc23)[C@@H](C)CN([C@@H](C)CO)C(=O)c2cc(NC(=O)c3ccccc3)ccc2O1 | inactive: 1.02
29 | COc1ccc2c3c([nH]c2c1)[C@@H](CO)N(Cc1ccncc1)C[C@]13CCN(CC1)Cc1ccc(cc1)-c1ccccn1 | inactive: 0.998
30 | CC(C)NCC(O)c1ccc(O)c(O)c1.Cl (stereo not given) | inactive: 0.895
31 | Cc1ccc(S(=O)(=O)Nc2ccc3c(c2)C(=O)N([C@H](C)CO)C[C@H](C)[C@@H](CN(C)C(=O)Nc2ccc(C(F)(F)F)cc2)OCCCC[C@@H](C)O3)cc1 | inactive: 1.01
32 | O=C(c1ccccc1)N1Cc2ccccc2[C@H]2OC(c3ccc(OCCCO)cc3)=N[C@@]2(Cc2ccccc2)C1=O | inactive: 1.04
33 | CC(C)(S)C(N)C(=O)O.NCCO (stereo not given) | inactive: 1.07
34 | Cc1noc(C)c1S(=O)(=O)N(C)C[C@@H]1Oc2ccc(NC(=O)Cc3cn(C)c4ccccc34)cc2CC(=O)N([C@H](C)CO)C[C@H]1C | inactive: 1
35 | O=C(C[C@H]1CC[C@H]2[C@@H](COC[C@H](O)CN2C(=O)c2cccnc2)O1)NCc1ccc(-c2ccccc2)cc1 | inactive: 1.01
36 | O=C(C[C@H]1CC[C@H]2[C@@H](COC[C@@H](O)CN2S(=O)(=O)c2ccc(F)cc2)O1)NCCN1CCCCC1 | inactive: 0.951
37 | C[C@H]1CN([C@@H](C)CO)C(=O)c2cc(NC(=O)Nc3ccc(C(F)(F)F)cc3)ccc2O[C@H]1CN(C)S(C)(=O)=O | inactive: 0.96
38 | NC(=O)N1c2ccccc2CC(=O)c2ccccc21 | inactive: 1.18
39 | COC(=O)Cn1c(=O)c2c(OC)c(C)cnc2n(C)c1=O | inactive: 0.981
40 | C[C@H]1CN([C@@H](C)CO)C(=O)Cc2cc(NC(=O)Nc3cccc4ccccc34)ccc2O[C@@H]1CN(C)Cc1ccc(C(F)(F)F)cc1 | inactive: 1.02

Reference: the supplement of paper PMC9446081
